From patent US20250270341A1 (Alector, published 2025)

T1: Full length human CD98hc on CHO cells (human)
T1 construct: CHO cells stably overexpressing it; also called CHO-human CD98hc; CHO-huCD98hc
T1 chain: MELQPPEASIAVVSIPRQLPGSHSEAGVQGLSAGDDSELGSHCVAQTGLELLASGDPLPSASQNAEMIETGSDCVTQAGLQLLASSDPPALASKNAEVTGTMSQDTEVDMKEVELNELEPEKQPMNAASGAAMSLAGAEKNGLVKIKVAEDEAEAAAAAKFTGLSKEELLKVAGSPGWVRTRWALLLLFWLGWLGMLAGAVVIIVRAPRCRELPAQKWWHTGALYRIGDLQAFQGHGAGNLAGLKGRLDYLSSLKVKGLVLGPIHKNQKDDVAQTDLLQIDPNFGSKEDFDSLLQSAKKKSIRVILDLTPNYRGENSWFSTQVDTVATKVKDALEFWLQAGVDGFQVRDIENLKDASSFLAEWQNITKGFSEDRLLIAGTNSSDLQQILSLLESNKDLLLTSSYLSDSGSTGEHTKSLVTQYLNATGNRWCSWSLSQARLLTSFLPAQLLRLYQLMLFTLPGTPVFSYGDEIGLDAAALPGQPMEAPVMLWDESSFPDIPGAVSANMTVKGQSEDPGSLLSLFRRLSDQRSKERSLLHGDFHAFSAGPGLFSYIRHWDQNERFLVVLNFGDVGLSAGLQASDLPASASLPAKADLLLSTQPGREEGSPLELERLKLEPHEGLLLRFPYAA

T2: human CD98hc endogenously expressed on HCMEC/D3 cells (human)
T2 construct: human brain endothelial cell line
T2 chain: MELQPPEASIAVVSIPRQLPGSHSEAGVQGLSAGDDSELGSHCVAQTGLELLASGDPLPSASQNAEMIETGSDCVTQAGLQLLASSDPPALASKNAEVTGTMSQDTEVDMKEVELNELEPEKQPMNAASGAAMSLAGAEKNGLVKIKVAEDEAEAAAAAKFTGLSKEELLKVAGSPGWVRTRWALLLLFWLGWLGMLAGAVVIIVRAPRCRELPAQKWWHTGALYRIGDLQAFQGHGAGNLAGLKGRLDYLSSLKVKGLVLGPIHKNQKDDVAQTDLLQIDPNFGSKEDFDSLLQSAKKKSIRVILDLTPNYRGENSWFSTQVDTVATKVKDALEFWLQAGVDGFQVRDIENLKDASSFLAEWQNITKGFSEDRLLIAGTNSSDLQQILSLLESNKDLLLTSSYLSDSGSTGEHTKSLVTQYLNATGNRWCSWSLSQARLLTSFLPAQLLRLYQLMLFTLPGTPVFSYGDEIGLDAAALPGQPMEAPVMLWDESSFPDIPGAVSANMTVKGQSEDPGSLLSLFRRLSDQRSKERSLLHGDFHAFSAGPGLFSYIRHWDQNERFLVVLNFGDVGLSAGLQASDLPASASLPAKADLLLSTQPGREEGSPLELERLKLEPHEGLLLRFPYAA


Columns and labels:
[1] = biological target: T1, Full length human CD98hc on CHO cells; experiment: FACS
[2] = biological target: T2, human CD98hc endogenously expressed on …; experiment: FACS

Binder	MFI ratio CHO huCD98/CHO parental [1]	MFI ratio HCMEC/2nd ab only [2]
CD98hc.05.168 (2+1 bispecific antibody) (bispecific antibody) heavy 1: EVRLLESGGGLVQPGGSLRLSCAASGFTFSNYAMGWVRQAPGKGLEWVSAISGSGGSTYYADSVKGRFTTSRDDSKNALYLQMNSLRAEDTAVYYCARGGPGWYAADVWGQGTTVTVSSASTKGPSVFPLAPSSKSTSGGTAALGCLVKDYFPEPVTVSWNSGALTSGVHTFPAVLQSSGLYSLSSVVTVPSSSLGTQTYICNVNHKPSNTKVDKKV[here human IgG1 Fc with changes without letters]GGGGSGGGGSGGGGSEVQLVESGGGLVKPGGSLKLSCAASGFAFSTYDMSWVRQTPEKRLEWVAYISSGGDTTYYPDTVKGRFTISRDNAKNTLYLQMSSLKSEDSAIYYCARQDYRPYFAYWGQGTLVTVSSGGSEGKSSGSGSESKSTGGSDIVMSQSPSSLAVSVGEKVTVSCKSSQNLLYSSNQKNYLAWYQQKPGQSPKLLIYWASTRESGVPDRFTGSGSGTDFTLTISSVKAEDLAVYYCQQYSYYPPTFGGGTKLEIK heavy 2: EVRLLESGGGLVQPGGSLRLSCAASGFTFSNYAMGWVRQAPGKGLEWVSAISGSGGSTYYADSVKGRFTTSRDDSKNALYLQMNSLRAEDTAVYYCARGGPGWYAADVWGQGTTVTVSS[here human IgG1 constant region with changes without letters] light: DIQMTQSPSSLSASVGDRVTITCRASQSISSYLNWYQQKPGKAPKLLIYAASSLQSGVPSRFSGSGSGTDFTLTISSLQPEDFATYYCQQADLPAFAFGGGTKVEIKRTVAAPSVFIFPPSDEQLKSGTASVVCLLNNFYPREAKVQWKVDNALQSGNSQESVTEQDSKDSTYSLSSTLTLSKADYEKHKVYACEVTHQGLSSPVTKSFNRGEC	18	204
CD98hc.05.188 (2+1 bispecific antibody) (bispecific antibody) heavy 1: EVRLLESGGGLVQPGGSLRLSCAASGFTFSNYAMGWVRQAPGKGLEWVSAISGSGGSTYYADSVKGRFTTSRDDSKNALYLQMNSLRAEDTAVYYCARGGPGWYAADVWGQGTTVTVSSASTKGPSVFPLAPSSKSTSGGTAALGCLVKDYFPEPVTVSWNSGALTSGVHTFPAVLQSSGLYSLSSVVTVPSSSLGTQTYICNVNHKPSNTKVDKKV[here human IgG1 Fc with changes without letters]GGGGSGGGGSGGGGSQVQLQQPGAELVRPGASVKLSCKASGYTFTSYWMSWVKQRPGQGLEWIGFITPSDSEALYSQMFKDKATLTVDKSSSTAHLQLSSLTSEDSAVYYCARWSYGNFAAMDYWGQGTSVTVSSGGSEGKSSGSGSESKSTGGSDIVMTQSPSSLAMSVGQKVTMSCKSSQSLLNSNNQKNYLAWYQQKPGQSPKLLVYFSSTRESGVPDRFIGSGSGTDFTLTITSVQAEDLADYFCQQHYSTPLTFGAGTKLEIK heavy 2: EVRLLESGGGLVQPGGSLRLSCAASGFTFSNYAMGWVRQAPGKGLEWVSAISGSGGSTYYADSVKGRFTTSRDDSKNALYLQMNSLRAEDTAVYYCARGGPGWYAADVWGQGTTVTVSS[here human IgG1 constant region with changes without letters] light: DIQMTQSPSSLSASVGDRVTITCRASQSISSYLNWYQQKPGKAPKLLIYAASSLQSGVPSRFSGSGSGTDFTLTISSLQPEDFATYYCQQADLPAFAFGGGTKVEIKRTVAAPSVFIFPPSDEQLKSGTASVVCLLNNFYPREAKVQWKVDNALQSGNSQESVTEQDSKDSTYSLSSTLTLSKADYEKHKVYACEVTHQGLSSPVTKSFNRGEC	16	260

More lines, now with the values ahead:

MFI ratio CHO huCD98/CHO parental [1]	MFI ratio HCMEC/2nd ab only [2]	Binder
8	136	CD98hc.05.081 (2+1 bispecific antibody) (bispecific antibody) heavy 1: EVRLLESGGGLVQPGGSLRLSCAASGFTFSNYAMGWVRQAPGKGLEWVSAISGSGGSTYYADSVKGRFTTSRDDSKNALYLQMNSLRAEDTAVYYCARGGPGWYAADVWGQGTTVTVSSASTKGPSVFPLAPSSKSTSGGTAALGCLVKDYFPEPVTVSWNSGALTSGVHTFPAVLQSSGLYSLSSVVTVPSSSLGTQTYICNVNHKPSNTKVDKKV[here human IgG1 Fc with changes without letters]GGGGSGGGGSGGGGSEVQLQQSRPELVKPGASVKMSCKASGYTFTSYVMHWVKQKPGQGLEWIGYISPYNGDTKYNEKFKGKATLTSDISSTTAYMELSSLTSEDSGVYYCARPGSSPSWFAYWGQGTLVTVSSGGSEGKSSGSGSESKSTGGSDIVMTQFPATLSVTPGDRVSLSCRASQSISNYLHWYQQKSHESPRLLIKYASQSISGIPSRFSGSGSGSDFTLSINSVEPEDVGVYYCQNGHSFPYMYTFGGGTKLEIK heavy 2: EVRLLESGGGLVQPGGSLRLSCAASGFTFSNYAMGWVRQAPGKGLEWVSAISGSGGSTYYADSVKGRFTTSRDDSKNALYLQMNSLRAEDTAVYYCARGGPGWYAADVWGQGTTVTVSS[here human IgG1 constant region with changes without letters] light: DIQMTQSPSSLSASVGDRVTITCRASQSISSYLNWYQQKPGKAPKLLIYAASSLQSGVPSRFSGSGSGTDFTLTISSLQPEDFATYYCQQADLPAFAFGGGTKVEIKRTVAAPSVFIFPPSDEQLKSGTASVVCLLNNFYPREAKVQWKVDNALQSGNSQESVTEQDSKDSTYSLSSTLTLSKADYEKHKVYACEVTHQGLSSPVTKSFNRGEC
9	60	CD98hc.05.166 (2+1 bispecific antibody) (bispecific antibody) heavy 1: EVRLLESGGGLVQPGGSLRLSCAASGFTFSNYAMGWVRQAPGKGLEWVSAISGSGGSTYYADSVKGRFTTSRDDSKNALYLQMNSLRAEDTAVYYCARGGPGWYAADVWGQGTTVTVSSASTKGPSVFPLAPSSKSTSGGTAALGCLVKDYFPEPVTVSWNSGALTSGVHTFPAVLQSSGLYSLSSVVTVPSSSLGTQTYICNVNHKPSNTKVDKKV[here human IgG1 Fc with changes without letters]GGGGSGGGGSGGGGSEVQLLQSGAELVKPGASVKLSCTASGFNILDTYIHWVMQRPEQGLEWIGRIDPANGHVKYDPKFQGKATITADTSSNTAYLQLSSLTSEDTAVYYCASPFTTVVATNIYYYGLGYWGHGTSVTVSSGGSEGKSSGSGSESKSTGGSDIVMTQSHKFMSTSLGDRVSITCKASQGVFTAVAWYQQKPGQSPKLLIYSASYRYTGVPDRFTGSGSGTDFTFTISSVQAEDLAVYYCQQHYSTPWTFGGGTKLEIK heavy 2: EVRLLESGGGLVQPGGSLRLSCAASGFTFSNYAMGWVRQAPGKGLEWVSAISGSGGSTYYADSVKGRFTTSRDDSKNALYLQMNSLRAEDTAVYYCARGGPGWYAADVWGQGTTVTVSS[here human IgG1 constant region with changes without letters] light: DIQMTQSPSSLSASVGDRVTITCRASQSISSYLNWYQQKPGKAPKLLIYAASSLQSGVPSRFSGSGSGTDFTLTISSLQPEDFATYYCQQADLPAFAFGGGTKVEIKRTVAAPSVFIFPPSDEQLKSGTASVVCLLNNFYPREAKVQWKVDNALQSGNSQESVTEQDSKDSTYSLSSTLTLSKADYEKHKVYACEVTHQGLSSPVTKSFNRGEC
32	405	CD98hc.05.144 (2+1 bispecific antibody) (bispecific antibody) heavy 1: EVRLLESGGGLVQPGGSLRLSCAASGFTFSNYAMGWVRQAPGKGLEWVSAISGSGGSTYYADSVKGRFTTSRDDSKNALYLQMNSLRAEDTAVYYCARGGPGWYAADVWGQGTTVTVSSASTKGPSVFPLAPSSKSTSGGTAALGCLVKDYFPEPVTVSWNSGALTSGVHTFPAVLQSSGLYSLSSVVTVPSSSLGTQTYICNVNHKPSNTKVDKKV[here human IgG1 Fc with changes without letters]GGGGSGGGGSGGGGSEVQLVESGGALVKPGGSLKLSCAASGFAFSSFDMSWVRQTPERRVEWVAYISGGGGSTYHPDTVKGRFAISRDNAKNTLYLHMNSLKSEDTAMYYCVRQGSRPWFAYWGQGTLVTVSSGGSEGKSSGSGSESKSTGGSDFVMSQSPSSLTVSVGEKVTMTCKSSQSLLYSYTQKNYLAWYQQKPGQSPNLLIYWASTRESGVPDRFAGSGSGTDFTLTISSVEAEDLAVYYCQQYSNYPPTFGGGTKLEIK heavy 2: EVRLLESGGGLVQPGGSLRLSCAASGFTFSNYAMGWVRQAPGKGLEWVSAISGSGGSTYYADSVKGRFTTSRDDSKNALYLQMNSLRAEDTAVYYCARGGPGWYAADVWGQGTTVTVSS[here human IgG1 constant region with changes without letters] light: DIQMTQSPSSLSASVGDRVTITCRASQSISSYLNWYQQKPGKAPKLLIYAASSLQSGVPSRFSGSGSGTDFTLTISSLQPEDFATYYCQQADLPAFAFGGGTKVEIKRTVAAPSVFIFPPSDEQLKSGTASVVCLLNNFYPREAKVQWKVDNALQSGNSQESVTEQDSKDSTYSLSSTLTLSKADYEKHKVYACEVTHQGLSSPVTKSFNRGEC
